According to article PMC6919601, “Identification of Plasmodium dipeptidyl aminopeptidase allosteric inhibitors by high throughput screening” (PLoS ONE, 2019):
Out of some 110,000 compounds screened, about 230 (0.21%) showed an effect of 50% or more. The list shows a part of the results.

Target: DPAP1 (Plasmodium falciparum, UniProt Q8IIJ9)
Experiment: primary screen, percent inhibition; read by cleavage of a fluorogenic dipeptide substrate; higher = more effect of the substance
Set-up: species or system P. falciparum D10 trophozoite lysates; single well
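Note: 30 min substrate incubation versus DMSO and 10 µM JCP410 controls.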

Sequence of DPAP1 (Q8IIJ9 whole entry, looked up): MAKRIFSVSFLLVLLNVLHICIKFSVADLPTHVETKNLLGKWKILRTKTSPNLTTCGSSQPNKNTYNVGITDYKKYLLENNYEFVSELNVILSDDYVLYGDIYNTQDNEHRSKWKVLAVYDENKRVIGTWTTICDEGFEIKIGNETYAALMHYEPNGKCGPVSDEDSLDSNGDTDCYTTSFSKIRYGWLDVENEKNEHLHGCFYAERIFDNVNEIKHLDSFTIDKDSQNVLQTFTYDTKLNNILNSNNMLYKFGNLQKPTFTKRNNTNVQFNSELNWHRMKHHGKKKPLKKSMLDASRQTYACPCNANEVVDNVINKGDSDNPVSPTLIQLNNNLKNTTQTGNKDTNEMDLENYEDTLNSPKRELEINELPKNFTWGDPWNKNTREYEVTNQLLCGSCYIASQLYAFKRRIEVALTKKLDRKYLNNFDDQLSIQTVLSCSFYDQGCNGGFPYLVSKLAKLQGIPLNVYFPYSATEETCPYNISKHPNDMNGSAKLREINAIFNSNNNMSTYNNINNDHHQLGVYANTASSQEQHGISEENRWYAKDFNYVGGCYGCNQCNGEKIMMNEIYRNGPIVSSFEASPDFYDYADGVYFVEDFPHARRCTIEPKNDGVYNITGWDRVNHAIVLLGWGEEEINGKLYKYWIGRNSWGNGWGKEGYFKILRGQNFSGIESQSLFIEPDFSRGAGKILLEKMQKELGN

Row | Structure (SMILES) | % Inhibition @ 10 uM
1 | C=C1c2cc(C)ccc2NC(=O)N1c1cccc(Cl)c1 | -5.26%
2 | CN(CCCNC(=O)c1cc(-c2ccc(Cl)cc2)[nH]n1)Cc1ccccc1 | -2%
3 | CN(C)S(=O)(=O)n1cc(/C=C(\NC(=O)c2ccccc2)C(=O)NCCO)c2ccccc21 | 11.9%
4 | CCCc1ccc(OCC(O)CN2CCC(C)CC2)cc1 (stereo not drawn) | 2.23%
5 | CCN1CCN(C2CCCCC2NS(=O)(=O)c2ccccc2)CC1 (stereo not drawn) | -0.671%
6 | CC(=O)c1c(C)[nH]c(C(=O)OCc2ccccc2)c1C | 3.01%
7 | Cc1nc2c(C(=O)N3CCN(C)CC3)cnn2c(C)c1Cc1ccc(Cl)cc1 | -2.26%
8 | O=C1CCc2cccc3c(O)c(Cc4ccccc4)c(O)c1c23 | 6.13%
9 | COc1cccc(CNC(=O)c2cnn3c4c(cnc23)CCCCC4)c1 | 3.3%
10 | O=C(NC1(c2ccccc2)CC1)N1CCN(Cc2ccccc2)CC1 | -1.52%
11 | Cc1ccccc1NC(=O)c1cncc(Br)c1 | 0.632%
12 | Cc1cc2nc(O)c(O)nc2cc1S(=O)(=O)N1CCN(C2CCCCC2)CC1 | 12.4%
13 | COC(=O)c1cc2oc(C)cc2n1CC(=O)Cc1ccc(OC)cc1OC | -11.4%
14 | COc1ccccc1-c1nc(-c2ccccc2)no1 | 0.0538%
15 | CC(=O)c1ccc(OCC(O)CN2CCN(c3ccccc3)CC2)cc1 (stereo not drawn) | 0.215%
16 | C=CCOc1ccc(CNCC2CCCO2)cc1 (stereo not drawn) | 0.163%
17 | Cc1cccc(C(=O)Nc2cccc3c2CCCC3)c1 | -3.27%
18 | O=C(c1ccccc1)c1cccc(C(=O)c2ccccc2)n1 | 2.02%
19 | Cc1ccccc1-c1nc(CSCC(=O)NCc2cccnc2)c(C)o1 | 0.689%
20 | COc1ccc(C2C(=O)N(C3CCCCC3)CC(=O)N2CCC2=CCCCC2)cc1OC (stereo not drawn) | -3.94%
21 | CCN(CC)C(=O)CSC1=C(C#N)C(c2cc(OC)c(OC)c(OC)c2)CC(=O)N1 (stereo not drawn) | 3.66%
22 | CCCc1cc(C(=O)Nc2cnn(Cc3ccc(F)cc3)c2)no1 | 0.628%
23 | CCN1CCN(C2CCN(C3CCN(Cc4ccccc4)CC3)CC2)CC1 | -5.51%
24 | CC(C)CC(NC(=O)C1CCC(C)CC1)C(=O)NCc1ccccn1 (stereo not drawn) | 2.64%
25 | N=C1/C(=C\c2ccc(SCc3ccc(Cl)cc3)o2)C(=O)N=C2SC(N3CCOCC3)=NN12 | -5.27%
26 | CCN(Cc1ccccc1)c1nc2c(-c3ccccc3)nnn2c2ccccc12 | 3.59%

Row | Structure (SMILES) | % Inhibition @ 10 uM
27 | O=C(C1CCN(S(=O)(=O)c2cccc3cccnc23)CC1)N1CCCC1 | -9.18%
28 | O=[N+]([O-])c1ccc(-n2ccc3ccccc32)cc1 | -5.51%
29 | CCc1n(CC(O)COc2ccc(C(=O)OC)cc2)c2ccccc2[n+]1C (stereo not drawn) | -5.28%
30 | COCCCNC(=O)CCCc1nnc2n(CCC(C)C)c(=O)c3sccc3n12 | -0.759%
31 | CCCc1cc(=O)oc2cc(O)cc(O)c12 | 1%
32 | COc1cccc2c1Oc1ncccc1N(C(=O)CCC(=O)NCC(C)c1ccccc1)C2 (stereo not drawn) | 4.52%
33 | Cc1cccc(NC(=O)C2CCCN2C(=O)OC(C)(C)C)c1 (stereo not drawn) | -8.64%
34 | CC(=O)c1cc(-c2ccccc2)n(CCC(=O)N2CCCCCC2)c1C | 1.47%
35 | CCCCOn1c(C)c(C(=O)OCC)c2c3no[n+]([O-])c3ccc21 | -4%
36 | COc1ccc(C(=O)Cc2cc(OC)cc(OC)c2)cc1 | -1.89%
37 | CN1C(=O)c2ccccc2C(C(=O)NCCN2CCN(Cc3ccccc3)CC2)C1c1cccs1 (stereo not drawn) | -3.87%
38 | CC(=O)c1cccc(NC(=O)COc2ccc(Br)cc2Cl)c1 | -3.78%
39 | CCCC(C)NC(=O)c1ccc(OCC)cc1 (stereo not drawn) | -1.36%
40 | COc1ccc(CCNC(=O)CCc2c(C)nc3ncnn3c2C)c(OC)c1 | 2.93%
41 | CCOc1cccc(N2C(=O)CC(N3CCC(C(=O)O)CC3)C2=O)c1 (stereo not drawn) | -2.67%
42 | CC1CCCC(N2CCN(c3ccc([N+](=O)[O-])cc3)CC2)C1 (stereo not drawn) | -3.6%
43 | Cc1ccc2c(c1)-c1c(cnn1CC(=O)NCc1ccc(F)cc1)CO2 | -2.67%
44 | Cc1cc2nc(S(=O)(=O)Cc3cccc(C(F)(F)F)c3)[nH]c2cc1C | -1.81%
45 | CC1SC(c2cccc(Cl)c2)NC1=O (stereo not drawn) | -2.32%
46 | CC(=O)NCC/N=C/C1=C(O)c2sccc2N(Cc2cccc(F)c2)S1(=O)=O | -4.03%
47 | CCOC(=O)c1c(NC(=O)COC(=O)/C=C/c2ccco2)sc2c1CCC2 | 2.8%
48 | O=C(O)c1cccc(NC2=C(Cl)C(=O)N(c3ccc(Cl)c(Cl)c3)C2=O)c1 | -6.7%
49 | Cc1ccc(CCN2C(=O)CN(C3CCCCC3)C(=O)C2c2ccc(F)cc2)cc1 (stereo not drawn) | -7.73%
50 | COc1ccc(/C=C/C(=O)NC(C)Cc2ccccc2)cc1OC (stereo not drawn) | -2.63%
51 | O=C1NC2(CCCCCC2)Oc2ccccc21 | 5.24%
52 | Cc1nc2c(-c3ccc(F)cc3)c(C)nn2c(C)c1CC(=O)NCc1ccccn1 | -2.45%

Row | Structure (SMILES) | % Inhibition @ 10 uM
53 | COC(=O)NCCOc1nc(N(C)C)nc(N(C)C)n1 | 1.52%
54 | Cc1cc(C)cc(-n2c(C)cc(C=C3C(=O)N(C)C(=O)N(C)C3=O)c2C)c1 | 4.95%
55 | Cc1nn2c(=O)/c(=C/c3cccc(Oc4ccccc4)c3)sc2nc1=O | -1.52%
56 | Cc1ccc(Cc2c(C)nc3c(C(=O)NC4CCCC(C)C4C)cnn3c2O)cc1 (stereo not drawn) | 0.0654%
57 | COc1ccc(OC)c(CNc2nn3nnnc3c3ccccc23)c1 | -4.51%
58 | OCCN1CCN(Cc2cccs2)CC1 | -0.292%
59 | CCc1nn(C(C)C(=O)N(C)Cc2ccccc2)c(=O)c2cc3occc3n12 (stereo not drawn) | -2%
60 | Cc1cc(NCc2cccnc2)nc2ccccc12 | -1.37%
61 | CCn1c2ccccc2n2c(SCc3ccccc3)nnc12 | 1.23%
62 | CCc1ccc(NC2=CC(=O)CC(c3ccco3)C2)cc1 (stereo not drawn) | 2.51%
63 | CC1CCN(Cc2ccccc2CO)CC1 | -4.03%
64 | O=C1OC(c2ccccc2F)=N/C1=C\c1coc2c(Cl)cc(Cl)cc2c1=O | -5.22%
65 | COCc1cc(C)nc(SCc2ccccc2Cl)c1C#N | -2.68%
66 | O=C1C(c2c[nH]c3ccccc23)CC(c2ccccc2)=NN1c1ccccc1 (stereo not drawn) | 1.54%
67 | O=C(Nc1ccccc1)N1CCCCC1 | -5.57%
68 | CCn1c(C)c(C)c2cc(C(=O)NCCC3=CCCCC3)ccc21 | -0.127%
69 | CCC1CCc2c(sc(NC(=O)C(C)C)c2C#N)C1 (stereo not drawn) | 0.385%
70 | O=C(/C=C/c1cccs1)NC(=S)N1CCOCC1 | 4.44%
71 | CCn1cc(C2=NOC(C(=O)NCCc3ccccc3)C2)c(C)n1 (stereo not drawn) | -3.08%
72 | COc1ccccc1C1CC(=O)NC(SCc2ccccc2Cl)=C1C#N (stereo not drawn) | 2.03%
73 | Cc1c(C(=O)Nc2ccccc2F)cccc1[N+](=O)[O-] | 0.827%
74 | Cc1ccc2c(c1)c1c3n2CCN(C(=O)c2ccccc2)C3CCC1 (stereo not drawn) | -4.87%
75 | O=C(Cn1cc2c(n1)CCCC2)N1CCC(Cc2ccccc2)CC1 | 4.95%
76 | O=C(CCCCCN1C(=O)c2ccccc2C1=O)NCc1ccccn1 | -6.08%
77 | CCOc1ccc(-c2csc3ncn(CC(=O)Nc4cc(C)ccc4C)c(=O)c23)cc1 | -0.478%
78 | N#Cc1ccc(-c2ccc3c(c2)OCO3)nc1SCC(=O)Nc1cccc(F)c1 | -0.68%

Row | Structure (SMILES) | % Inhibition @ 10 uM
79 | Oc1nc(Cc2ccccc2)nc2sc3c(c12)CCCC3 | 5.04%
80 | CCN(CC)CCN1C(=O)C(O)=C(C(=O)c2ccc(Cl)cc2)C1c1ccc(C)o1 (stereo not drawn) | -3.85%
81 | COc1ccc2[nH]cc(CCNS(=O)(=O)c3ccc(-n4cnnn4)c(OC)c3)c2c1 | -2.4%
82 | Cc1ccc(C)c(N(CC(=O)Nc2ccc(C(C)C)cc2)S(C)(=O)=O)c1 | -2.83%
83 | CCOc1ccc(/C=C2\SC(=O)N(CC(=O)Nc3ccc(C)cc3)C2=O)cc1OC | 4.49%
84 | CC(CNc1nc2ccc(C(=O)c3ccccc3)cc2n2cnnc12)c1ccccc1 (stereo not drawn) | 3.42%
85 | COc1ccc(OC(C)C)c(C2C(C#N)=C(N)Oc3c2oc(CO)cc3=O)c1 (stereo not drawn) | -5.36%
86 | Cn1c(=O)[nH]c(=O)c2c1nc(CN(Cc1ccccc1)Cc1ccccc1)n2CCN1CCOCC1 | 3.59%
87 | O=[N+]([O-])c1ccc(-c2cc(O)n(-c3ccccc3Cl)n2)cc1 | -4.3%
88 | CC(OC(=O)c1cccnc1SCc1cc(=O)n2ccccc2n1)c1ccccn1 (stereo not drawn) | 2.05%
89 | O=C(Nc1ccc2c(c1)C(=O)NC2=O)c1ccco1 | 1.34%
90 | COc1ccc(NC(=O)C(N)=O)cc1Cl | 4.38%
91 | CCOC(=O)c1[nH]c2ccccc2c1NC(=O)c1cc(OC)c(OC)c(OC)c1 | 4.14%
92 | Cc1ccc(C2=CC(c3ccccc3F)n3nnnc3N2)cc1 (stereo not drawn) | 0.0842%
93 | CC(=O)/N=C(\N)Nc1nc(C)c2cc(C)c(C)cc2n1 | 2.03%
94 | COc1ccc(/C=N/OCc2nc3c4c5c(sc4ncn3n2)CCCC5)cc1 | 1.26%
95 | Cc1ccc(NC(=O)CS(=O)(=O)c2ccc3ccccc3c2)cc1 | -4.67%
96 | COc1ccc(CCNC(=O)c2cc(C3CC3)on2)cc1OC | -4.43%
97 | O=C(c1ccc(S(=O)(=O)N2CCCCCC2)cc1)N1CCN(c2ccccc2)CC1 | 3.1%
98 | C=CCNc1ncnc2c1cnn2-c1cccc(C)c1 | 7.92%
99 | CCCOc1ccc2nc(NC(=O)OC)sc2c1 | 2.79%
100 | CCOC(=O)c1c(NC(=O)CN2CCCCC2)sc2c1CCCCC2 | 14.5%
101 | C[C@@H](NC(=O)CN1C(=O)c2ccccc2S1(=O)=O)c1ccccc1 | 7.17%
102 | CC(=O)C1=C(C)NC(c2cccc([N+](=O)[O-])c2)NC1c1cccc([N+](=O)[O-])c1 (stereo not drawn) | -0.0217%
